Test results as given in PubChem BioAssay AID1347417 (National Center for Advancing Translational Sciences (NCATS), 2020).
About 5,300 (4.4%) of roughly 120,000 compounds were called active. Inconclusive results, whose numbers are uncertain, are shown with a selection of clear calls. Calls come from the whole dose curve; as a rule, active = well fitted inhibition curve with a large enough effect; inconclusive = small, poorly fitted or top-dose-only effect; inactive = no such curve, though single readings can be large or run the other way. Potencies of inconclusive entries are doubtful fits and often do not repeat.

Experiment: qHTS Primary assay for Inhibitors of Plasmodium falciparum Dd2 growth in vitro; note: nearly all actives have a fitted effect of over 65% in size;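 for activity, negative = inhibition: plate controls were DMSO vehicle for no effect and reference drug for full effect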
Details: P. falciparum Dd2 growth, SYBR Green, 72 h; activity, negative = inhibition: at 28.9 µM (top of the series) unless noted; series mostly up to 28.9 µM
Procedure, shortened: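 Infected erythrocytes (Dd2, 0.3% parasitemia, 2.5% hematocrit final) are added to compound in RPMI-1640/Albumax II medium, grown 72 h at 37C in low oxygen, then lysed with saponin/Triton-X containing SYBR Green and read by fluorescence.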
Potency is the fitted concentration of half-maximal effect; tags give direction and shape of the fitted curve.

| SMILES | activity, negative = inhibition | Potency | outcome |
| --- | --- | --- | --- |
| Cc1nc2n(c1C(=O)N(C)C)CCN(C(=O)c1cc(=O)n(C)c(=O)n1C)C2 | inactive: -8.01% | – | – |
| Cc1cc(C(=O)N2CCC3(CC2)NCc2ccccc2-n2ccnc23)nn1C | inactive: -10.1% [at 5.79 µM] | – | – |
| COCCNC(=O)[C@H]1CN2CC[C@H]1C[C@@H]2Cn1cc(CO)nn1 | inactive: 21.3% [at 44.1 µM] | – | – |
| CCOC(=O)c1oc2c(c1C)-c1nn(Cc3c(F)cccc3Cl)cc1CC2 | – | inconclusive: 17.8 µM [inhibitor, single point] | – |
| Cc1cc(C)c(CNC(=O)c2cc(-c3ccccc3O)cc3c2OCCN3C(C)C)c(=O)[nH]1 | – | inconclusive: 1.78 µM [inhibitor, single point] | – |
| CCc1nc2c(=O)n(CC(=O)NCc3ccc(Br)cc3)nc(C)c2s1 | – | – | inactive |
| CCC(OC)C(=O)N1CCN(c2nc(-c3ccccc3)nc3c2CCC3)CC1 (stereo not drawn) | – | inconclusive: 7.94 µM [inhibitor, partial curve] | – |
| COc1cccc([S+](=O)([O-])N2CCC3(C2)OC(=O)Nc2ccccc23)c1 (stereo not drawn) | – | inconclusive: 10 µM [inhibitor, single point] | – |
| O=C(NCCc1noc(C2CC2)n1)Nc1cccc(C(F)(F)F)c1 | – | – | inactive |
| CC(=O)N1CC[C@H](c2nc3cc(F)ccc3o2)C1 | inactive: -5.25% [at 44.1 µM] | – | – |
| O=C(Nc1ccc2nc(SCC(=O)N3CCCC3)sc2c1)c1cccc(Br)c1 | – | inconclusive: 11.2 µM [inhibitor, single point] | – |
| Cc1ccc(C)c(CNC(=O)CCn2cccn2)c1 | inconclusive: -72.8% [inhibitor] [at 5.79 µM] | – | – |
| Cc1cc(C)cc(N2C(=O)CSC23C(=O)N(CC(=O)Nc2ccc(F)cc2F)c2ccccc23)c1 (stereo not drawn) | – | active: 10 µM | – |
| CCc1nn(-c2ccc(OC)cc2)c(Oc2ccccc2F)c1CCC(=O)NC(C)C | – | active: 7.94 µM | – |
| O=C(Nc1ccc(Oc2ccccc2)cc1)O[C@@H]1CO[C@H]2[C@@H]1OC[C@@H]2NC(=S)Nc1cccc2ccccc12 | – | active: 12.6 µM | – |
| CCN(CC)c1cc2c(cc1F)c(=O)c(S(=O)(=O)c1ccc(OC)cc1)cn2Cc1ccccc1 | – | active: 12.6 µM | – |
| FC(F)(F)CN1C2CCC1CN(c1nc(Cl)nc3nc[nH]c13)C2 | inactive: 10.9% | – | – |
| Cc1ccc(CNC(=O)N2C[C@@H](Oc3ccccc3)C[C@@H]2C(=O)N2CCOCC2)cc1 | – | inconclusive: 5.01 µM [inhibitor, partial curve, poor fit] | – |
| CCc1ccc(CN2CCC(CO)(CN3CCCC3)CC2)cc1 | – | active: 7.08 µM | – |
| Cc1ccc(NC(=O)CN2CCSc3ccc(S(=O)(=O)N4CCCC4)cc32)cc1 | – | active: 7.94 µM | – |
| Cn1nccc1CN1CCC2(CC1)CC(=O)c1ccc(Cl)cc1O2 | – | – | inactive |
| O=C(Nc1ccc2ncnc(N3CCCCC3)c2c1)c1cc(F)ccc1F | – | – | inactive |
| COc1cc(OC)c(NC(=O)c2cc(C)nc3c2c(C)nn3-c2ccc(C)cc2)cc1Cl | inactive: 31.5% [at 5.79 µM] | – | – |

| SMILES | activity, negative = inhibition | Potency | outcome |
| --- | --- | --- | --- |
| COc1cc(NC(=O)CCC2CCN(C(=O)c3ccccc3F)CC2)cc(OC)c1 | inactive: -17.2% | – | – |
| COc1ccc(CCNC(=O)c2ccc3c(c2)N(Cc2ccc(Cl)cc2)C(=O)c2ccccc2S3)cc1OC | – | active: 7.94 µM | – |
| COc1ccc(-n2nc3n(c2=O)CCN(Cc2ccccc2)C3)cc1 | inconclusive: -133% [inhibitor] | – | – |
| CC(C)CCNC(=O)Nc1ccc2c(c1)N(Cc1ccccc1)C(=O)c1ccccc1S2 | – | inconclusive: 12.6 µM [inhibitor, single point] | – |
| CCOc1ccc(NC(=O)c2ccc3c(c2)N(CC)C2CCCCN2C3=O)cc1 (stereo not drawn) | – | active: 5.01 µM | – |
| O=C1NCCCCCCN(C(=O)c2cccs2)[C@H]2C[C@H](C(=O)N3CCc4ccccc4C3)C[C@@H]12 | – | inconclusive: 2.24 µM [inhibitor, full curve, poor fit] | – |
| Cc1ccccc1Nc1c(-c2ccc(Br)o2)nc2ccc(Cl)cn12 | – | inconclusive: 7.94 µM [inhibitor, partial curve] | – |
| CN(C)CC(O)COc1ccc(CN(C)C2CCSCC2)cc1 (stereo not drawn) | – | inconclusive: 20 µM [inhibitor, single point] | – |
| COCCNC(=O)[C@@H]1C[C@@H](O)CN1C1CCN(C(=O)CN2CCCCCC2)CC1 | inactive: -7.99% | – | – |
| CC1=C[C@@H](CNS(C)(=O)=O)[C@H](C(C)C)C[C@H]1Cc1nc2ccccc2n1C | – | inconclusive: 10 µM [inhibitor, partial curve, poor fit] | – |
| CCNC(=O)C1C(c2cccc(NC(=O)c3cccc(C)c3)c2)OC(=O)N1Cc1cccc(Cl)c1 (stereo not drawn) | – | inconclusive: 3.98 µM [inhibitor, single point] | – |
| Cn1ccnc1C(=O)NCC1CCCCC(=O)N1 (stereo not drawn) | – | – | inactive |
| CCn1ccc2sc(C)c(C(=O)NCc3ccc(F)cc3Cl)c2c1=O | – | inconclusive: 7.94 µM [inhibitor, partial curve, poor fit] | – |
| COc1ccc(N2CC(C(=O)NCCOc3ccccc3)NC2=O)cc1 (stereo not drawn) | inactive: -8.7% | – | – |
| Cc1c(F)cccc1NC(=O)C1CCN(C(=O)c2ncn3c2COC(c2ccc(F)cc2)C3)CC1 (stereo not drawn) | – | – | inactive |
| O=C(c1cccc(Oc2ccccc2)c1)N1CC[C@@]2(O)CCNC[C@H]2C1 | – | inconclusive: 3.55 µM [inhibitor, single point] | – |
| Cc1cccc(C)c1NC(=O)Cn1c(=O)n(Cc2ccccc2)c(=O)c2c(C)c(C(=O)N(C)C)sc21 | – | active: 8.91 µM | – |
| O=C(NCc1cccs1)c1csc(N2CCN(c3ccccc3F)CC2)n1 | – | inconclusive: 20 µM [inhibitor, single point] | – |
| Cc1ccccc1C(=O)N1CCC(n2cc(-c3nc(-c4ccccc4)no3)nn2)C1 (stereo not drawn) | – | inconclusive: 2.24 µM [inhibitor, full curve, poor fit] | – |
| Cc1cc(CN(C)C(=O)c2cc(CN3CCC(Cc4ccccc4)CC3)on2)n[nH]1 | – | inconclusive: 12.6 µM [inhibitor, partial curve, poor fit] | – |
| COc1ccc([C@H]2C[C@@H](O)[C@@H](O)[C@@H]2NCc2cn(C)c3ccccc23)cc1 | – | active: 8.91 µM | – |
| COc1ccc2[nH]cc(CCNC(=O)C3N(C(C)C)C(=O)C34CCCC4)c2c1 (stereo not drawn) | inactive: -5.12% | – | – |
| CN(Cc1ccccc1)C(=O)c1ccc2c(c1)N(Cc1ccccc1F)C(=O)c1ccccc1S2(=O)=O | – | inconclusive: 3.98 µM [inhibitor, single point] | – |

| SMILES | activity, negative = inhibition | Potency | outcome |
| --- | --- | --- | --- |
| CCOC(=O)C1CCCN(C(=O)c2c(C)oc3c2CN(Cc2ccc(C)cc2)CC3)C1 (stereo not drawn) | – | inconclusive: 10 µM [inhibitor, partial curve, poor fit] | – |
| CCOC(=O)c1[nH]c(C)c(CCC(=O)NCc2ccc(N(C)C)cc2)c1C | – | inconclusive: 12.6 µM [inhibitor, partial curve] | – |
| O=C(c1cnc2ccccn2c1=O)N1CC(=O)N(C2CCCCC2)CC(OCc2ccccc2)C1 (stereo not drawn) | – | inconclusive: 20 µM [inhibitor, single point] | – |
| O=c1ncn(Cc2ccccc2)c2ccc(-c3ccsc3)nc12 | – | inconclusive: 4.47 µM [inhibitor, partial curve, poor fit] | – |
| Cc1cc(CN2CC(N(C)c3ccccc3C)C2)on1 | – | inconclusive: 1.58 µM [inhibitor, partial curve, poor fit] | – |
| COc1ccc(NC(=O)N2CC[C@H]3COC(=O)N3c3cc(C)ccc3C2)cc1 | inactive: 21.8% [at 44.1 µM] | – | – |
| COCCNC(=O)c1ccc(CC2CCN(C(=O)CCc3c(C)nn(C)c3C)CC2)cc1 | – | inconclusive: 17.8 µM [inhibitor, single point] | – |
| CCOc1ccccc1NC(=O)C1CCN(C(=O)c2ncn3c2COC(c2ccc(F)cc2)C3)CC1 (stereo not drawn) | inactive: -15.3% | – | – |
| CC(C)OCCCNC(=O)c1cc(C2CC2)nc2onc(C3CCNCC3)c12 | – | inconclusive: 10 µM [inhibitor, single point] | – |
| CCOC(=O)c1c(C)oc2ncnc(N3CCN(c4ccccc4F)CC3)c12 | – | inconclusive: 14.1 µM [inhibitor, single point] | – |
| CCSc1nc(-c2ccccc2OC)nc2c1Cc1c(CO)cnc(C)c1O2 | – | inconclusive: 10 µM [inhibitor, single point] | – |
| COc1ncccc1-c1nc(-c2c(C)noc2C)cc2c1cc(-c1ccccc1)n2C | – | inconclusive: 1.26 µM [inhibitor, full curve, poor fit] | – |
| Cc1noc(-c2cn(C3CCN(C(=O)c4ccccc4F)C3)nn2)n1 (stereo not drawn) | inactive: -7.23% | – | – |
| COc1cccc(C)c1NC(=O)c1cccc(CN2CCCC(C)C2)c1 (stereo not drawn) | – | inconclusive: 3.98 µM [inhibitor, partial curve, poor fit] | – |
| Clc1ccc(-c2nc(C3CC3)nc3c2CCN(Cc2ccccc2)CC3)cc1 | – | – | inactive |
| COc1cccc(-c2noc(Nc3cc(OC)c(OC)c(OC)c3)n2)c1 | – | inconclusive: 14.1 µM [inhibitor, single point] | – |
| C=CCN(C)C(=O)[C@@H](C)C1CC[C@@]2(C)Cc3sc(NS(=O)(=O)c4ccc(Cl)cc4)nc3[C@@H](C)[C@@H]2[C@H]1O (stereo partly drawn) | – | inconclusive: 11.2 µM [inhibitor, single point] | – |
| CSCCC(NS(=O)(=O)c1ccc2c(c1)oc(=O)n2C)C(=O)N1CCN(c2cc(C)ccc2C)CC1 (stereo not drawn) | inactive: -20.9% | – | – |
| O=C1N(CC2CC2)CCCC1(O)CNCc1cc(F)cc(F)c1 (stereo not drawn) | – | inconclusive: 20 µM [inhibitor, single point] | – |
| CCOc1ccccc1NC(=O)CSc1nc(=O)[nH]c2c1CCCC2 | – | – | inactive |
| Cn1c(=O)n(C)c2cc(NS(=O)(=O)c3ccc(F)cc3)ccc21 | inactive: 33% | – | – |
| COc1cccc(C(=O)Nc2ccc3nc(SCC(=O)N4CCOCC4)sc3c2)c1 | – | inconclusive: 11.2 µM [inhibitor, single point] | – |
